{"source": "a collection of fitness landscapes (doi:10.1126/science.1257360)", "parents": {"B1": {"name": "PhoQ; a variant is named by its letters at X, in order, P23837 (parent)", "chain": "MKKLLRLFFPLSLRVRFLLATAAVVLVLSLAYGMVALIGYSVSFDKTTFRLLRGESNLFYTLAKWENNKLHVELPENIDKQSPTMTLIYDENGQLLWAQRDVPWLMKMIQPDWLKSNGFHEIEADVNDTSLLLSGDHSIQQQLQEVREDDDDAEMTHSVAVNVYPATSRMPKLTIVVVDTIPVELKSSYMVWSWFIYVLSANLLLVIPLLWVAAWWSLRPIEALAKEVRELEEHNRELLNPATTRELTSLVRNLNRLLKSERERYDKYRTTLTDLTHSLKTPLXXLQXXLRSLRSEKMSVSDAEPVMLEQISRISQQIGYYLHRASMRGGTLLSRELHPVAPLLDNLTSALNKVYQRKGVNISLDISPEISFVGEQNDFVEVMGNVLDNACKYCLEFVEISARQTDEHLYIVVEDDGPGIPLSKREVIFDRGQRVDTLRPGQGVGLAVAREITEQYEGKIVAGESMLGGARMEVIFGRQHSAPKDE"}}, "note": "This is one part of the list."}
{"variants_of": "B1", "assay": "enrichment ratio after two sorts for PhoP signalling (ratio (wild type AVST 3.29)); higher = more functional", "details": "with PhoP (E. coli)"}
{"variant": "KVYL", "enrichment ratio": "≤ 0.25"}
{"variant": "YGID", "enrichment ratio": "≤ 0.25"}
{"variant": "QYQP", "enrichment ratio": "≤ 0.25"}
{"variant": "GAQR", "enrichment ratio": "≤ 0.25"}
{"variant": "SVQS", "enrichment ratio": "≤ 0.25"}
{"variant": "GFCV", "enrichment ratio": "≤ 0.25"}
{"variant": "IPMQ", "enrichment ratio": "≤ 0.25"}
{"variant": "TYAG", "enrichment ratio": "≤ 0.25"}
{"variant": "RTRT", "enrichment ratio": "≤ 0.25"}
{"variant": "LNWM", "enrichment ratio": "≤ 0.25"}
{"variant": "KPEG", "enrichment ratio": "≤ 0.25"}
{"variant": "YFHG", "enrichment ratio": "≤ 0.25"}
{"variant": "KDCQ", "enrichment ratio": "≤ 0.25"}
{"variant": "HWIS", "enrichment ratio": "≤ 0.25"}
{"variant": "VFVA", "enrichment ratio": "≤ 0.25"}
{"variant": "QRIA", "enrichment ratio": "≤ 0.25"}
{"variant": "AEYW", "enrichment ratio": "≤ 0.25"}
{"variant": "NMLG", "enrichment ratio": "≤ 0.25"}
{"variant": "RSHM", "enrichment ratio": "≤ 0.25"}
{"variant": "PFYS", "enrichment ratio": "≤ 0.25"}
{"variant": "NRHP", "enrichment ratio": "≤ 0.25"}
{"variant": "RKAT", "enrichment ratio": "≤ 0.25"}
{"variant": "PGSQ", "enrichment ratio": "≤ 0.25"}
{"variant": "QVTL", "enrichment ratio": "≤ 0.25"}
{"variant": "DTLN", "enrichment ratio": "≤ 0.25"}
{"variant": "QVMI", "enrichment ratio": "≤ 0.25"}
{"variant": "LTHV", "enrichment ratio": "≤ 0.25"}
{"variant": "NKIM", "enrichment ratio": "≤ 0.25"}
{"variant": "MEHL", "enrichment ratio": "≤ 0.25"}
{"variant": "WFEI", "enrichment ratio": "≤ 0.25"}
{"variant": "DRNA", "enrichment ratio": "≤ 0.25"}
{"variant": "NRGF", "enrichment ratio": "≤ 0.25"}
{"variant": "SANY", "enrichment ratio": "≤ 0.25"}
{"variant": "PETQ", "enrichment ratio": "≤ 0.25"}
{"variant": "QEKF", "enrichment ratio": "≤ 0.25"}
{"variant": "NVKR", "enrichment ratio": "≤ 0.25"}
{"variant": "KHMG", "enrichment ratio": "≤ 0.25"}
{"variant": "SVMM", "enrichment ratio": 4.93}
{"variant": "HEGW", "enrichment ratio": "≤ 0.25"}
{"variant": "YVRM", "enrichment ratio": "≤ 0.25"}
{"variant": "ESDS", "enrichment ratio": "≤ 0.25"}
{"variant": "CLYQ", "enrichment ratio": "≤ 0.25"}
{"variant": "TWFQ", "enrichment ratio": "≤ 0.25"}
{"variant": "AKGV", "enrichment ratio": 1.7}
{"variant": "GVCT", "enrichment ratio": "≤ 0.25"}
{"variant": "PVSM", "enrichment ratio": "≤ 0.25"}
{"variant": "LGDT", "enrichment ratio": "≤ 0.25"}
{"variant": "RIAE", "enrichment ratio": "≤ 0.25"}
{"variant": "AQEC", "enrichment ratio": "≤ 0.25"}
{"variant": "DTGH", "enrichment ratio": "≤ 0.25"}
{"variant": "WQTT", "enrichment ratio": "≤ 0.25"}
{"variant": "HGPL", "enrichment ratio": "≤ 0.25"}
{"variant": "ARDM", "enrichment ratio": "≤ 0.25"}
{"variant": "TTHL", "enrichment ratio": 11}
{"variant": "LNKV", "enrichment ratio": "≤ 0.25"}
{"variant": "HNDW", "enrichment ratio": "≤ 0.25"}
{"variant": "PFMF", "enrichment ratio": "≤ 0.25"}
{"variant": "FNNK", "enrichment ratio": "≤ 0.25"}
{"variant": "VSAD", "enrichment ratio": "≤ 0.25"}
{"variant": "RLCF", "enrichment ratio": "≤ 0.25"}
{"variant": "RSEI", "enrichment ratio": "≤ 0.25"}
{"variant": "GQEA", "enrichment ratio": "≤ 0.25"}
{"variant": "MMSR", "enrichment ratio": "≤ 0.25"}
{"variant": "DRRS", "enrichment ratio": "≤ 0.25"}
{"variant": "VGPW", "enrichment ratio": "≤ 0.25"}
{"variant": "WLTI", "enrichment ratio": "≤ 0.25"}
{"variant": "ACTK", "enrichment ratio": 4.69}
{"variant": "SHTS", "enrichment ratio": "≤ 0.25"}
{"variant": "WRNP", "enrichment ratio": "≤ 0.25"}
{"variant": "TTSN", "enrichment ratio": 11.1}
{"variant": "QHPV", "enrichment ratio": "≤ 0.25"}
{"variant": "DIDW", "enrichment ratio": "≤ 0.25"}
{"variant": "KFGI", "enrichment ratio": "≤ 0.25"}
{"variant": "INAF", "enrichment ratio": "≤ 0.25"}
{"variant": "KPCY", "enrichment ratio": "≤ 0.25"}
{"variant": "AWPY", "enrichment ratio": "≤ 0.25"}
{"variant": "RQRK", "enrichment ratio": "≤ 0.25"}
{"variant": "LVVM", "enrichment ratio": "≤ 0.25"}
{"variant": "FNNH", "enrichment ratio": "≤ 0.25"}
{"variant": "KRRD", "enrichment ratio": "≤ 0.25"}
{"variant": "YEEM", "enrichment ratio": "≤ 0.25"}
{"variant": "WKYH", "enrichment ratio": "≤ 0.25"}
{"variant": "FGVY", "enrichment ratio": "≤ 0.25"}
{"variant": "INLC", "enrichment ratio": "≤ 0.25"}
